Self-cleavage data for 20 variants are collected here from the RNAGym collection of RNA variant scans (doi:10.7554/elife.90254).

Sequences and labels used below:
B1: OR4K15 (parent)
chain: GUUAACGGUCAUAGGCCAUGGAAACUAGGAGCACCAUUUCGCUGCCAGUGAAGAAAUGAACAAAGAAAAUCUGGGCCAGGCAGGCAUCAAAAGAAAUAGUCUUGCGCUCAACCAGAAAGUCUGUAAUCAUUUUAAGGGUA

Read counts are not given, so values of variants with three or more changes are uncertain.

Variants of B1 are the subject of the series. The series can be described thus: self-cleavage, relative activity (ratio to wild type); higher = more cleavage; in vitro, sequencing; the parent is a self-cleaving ribozyme.
As to GUCGACGGUCAUAGGCCAUGGAAACUAGGAGCACCAUUUCGCUGCCAGUGAAGAAAUGAACAAAGAAAAUCUGGGCCAGGCAGGCAUCGAAAGAAAAAGUCUUGCGCUCAACCAGAAAGUCUGUAAUCAUUUUAAGGGUA [U3C A4G A89G U97A], the self-cleavage was found to be 0.6. Then GGUAACGGUCAUAGGCCAUGGAAACUAGGAGCACCAUUUCGCUGCCAGUGAAGAAAUGAACAAUGAAAAUCUGGGCCAGGCGGGCAUCAAAAGAAAUAGUCUUGGGCUCAACCAGAAAGUCUGUAAUCAUUUUAAGGGUA [U2G A64U A82G C105G], with 0.19; and GUAAACGGUCAUAGGCCAUGGAAACUAGGAGCACCGUUUCGCUGCCAGUGAAGAAAUGAACAGAGAAAAUCUGGGCCAGGCAGGCAUCAAAAGAAAUAGUCUUGCGCUCAACCAGAAAGUCUGUAAUCAUUUUAAGGGUA [U3A A36G A63G], with 1.4.

As to GUAAACGGUCACAGGCCAUGGAAACUAGGAGCACCGUUUCGCUGCCAGUGAAGAAAUGAACAAAGAAAAUCUGGGCCAGGCAGGCAUCAAAAGAAAUUGUCUUGCGCUCAACCAGAAAGUCUGUAAUCAUUUUAAGGGUA [U3A U12C A36G A98U], the self-cleavage was 1.22.

On to GUAAACGGUCACAGGCCAUGGAAACUAGGAGCACCAUUUCGCUGCCAGUGAAGAAAUGAACAAAGAAAAUCUGGGCCAGGCAGGCAUCAAAGGAAAUAGUCUUGCGCUCAACCAGAAAGUCUGUAAUCAUUUUAAGGGUA [U3A U12C A92G], for which the self-cleavage is 1.71. Then GUAAACGGUCAUAGGCCAUGGAAACUAGGAGCACCAUUUCGCUGCCAGUGAAGUAAUGAGCAAAGAAAAUCUGGGCCAGGCAGGCAUCAAAAGAAAUGGUCUUGCGCUCAACCAGAAAGUCCGUAAUCAUUUUAAGGGUA [U3A A54U A60G A98G U122C], with 0.15. GUCAGCGGUCAUAGGCCGUGGAGACUAGGAGCACCAUUUCGCUGCUAGUGAAGAAAUGAACAAAGAAAAUCUGGGCCAGGCAGGCAUCAAAAGAAAUAGUCUUGCGGUCAACCAGAAAGUCUGUAAUCAUUUUAAGGGUA [U3C A5G A18G A23G C46U C107G]: the self-cleavage is 0.08. Then GGUAACGGCCGUAGGCCAUGGAAACUAGGAGCACCAUUUCGCUGCCAGUGAAGAAAUGAACAAAGGAAAUCUGGGCCAGGCAGGCAUCAAAAGAAAUGGUCUUGCGCUCUACCAGAAAGUCUGUAGUCAUUUUAAGGGUA [U2G U9C A11G A66G A98G A110U A126G], with 0.53.

Consider GUAAACGGUCAUAGGCCAUGGAAACUAGGAGCACCAUUUCGCUGCCAGUGAAGAAAUGAACAAAGAAAAUCUGGGCAAGGCAGGCAUCGAAAGAAAUAGUCUUGCGCUCAACCAGAAAGUCUGUAAUCACUUUAAGGGUA [U3A C77A A89G U130C], for which the self-cleavage was 0.78. Then GUCAACGGUCCUAGGCCACGGGAGCUAGGAGCACCAUUUCGCUGCCAGUGAAGAAAUGAACAAAGAAAAUCUGGGCCUGGCAGGCAUCAAAAGAAAUAGUCUUGCGCUCAACCAGAAAGCCUGUAAUCAUUUUAAGGGUA [U3C A11C U19C A22G A24G A78U U120C], with 0.

As to GUAAACGGUCAUAGGCCAUGGAAACUAGGAGCACCAUUUCGCUGCCAGUGAAGAAAUGAACAAAGAGAAUCUGGGCCAGGCAGGCAUCAAAAGAAAUAGUCUCGCGCUCAACCAGAAAGUCUGUAAUCAUUUUAAGGGUA [U3A A67G U103C], the self-cleavage turned out to be 0.69.

In the case of GUAAACCGUCAUAGGCCAUGGAAACUAGGAGCACCAUUUCGCUGCCAGUGAAGAAAUGAACAAAGAAAAUCUGGGCCAGGCAGGCAUCAAAAGAAAUGGUCUUGCGCUCAACCAGAAAGUCUGUAAUCAUUUUAAGGGUA [U3A G7C A98G], the self-cleavage is 0.64.

For GUAAACGGUCAUAGGCCAUGGAAACUAGGAGCACCAUUUCGCUGCCAGUGAAGAAACGAACAAAGAAAAUCAGGGCCAGGCAGGCAUCAAAAGAAAUAGUCUUGCGCUCAACCAGAAAGUCUGUAAUCAUUUUAAGGGUA [U3A U57C U72A], the self-cleavage came to 0.25.

With GUAAACGGUCAUAGGCCAUGGAAACUAGGAGCACCAUUUCGCUGCCAGUGAAGAAAUGAACAAAGAAAAUCUGGGCAAGGCAGGCAUCAAAAGAAAUAGUCUUGCGCUCAACCAGAAAGUCUGUAAUCAUUCUAAGGGUA [U3A C77A U132C], the self-cleavage is 0.47.

On to GUCAACGGUCGUAGGCCAUGGAAGCUAGGAGCACCAUUUCGCUGCCAGUGAAGGAAUGAACAAAGAAAACCUGGGCCAGGCAGGCAUCAAAAGAAAUAGUCUUGCGCUCAACCAGAAAGUCUGUAAUCAUUUUAAGGGUA [U3C A11G A24G A54G U70C], for which the self-cleavage stood at 0.98. Consider GUAAACGGUCAUAGGCCAUGGAAACUAGGAGCACCAUUUCGCUGCCAGUGAAGAAAUAAACAAAGAAAAUCUGGGCCAGGCAGGCAUCAAAAGAAGUAGUCUUGCGCUCAACCAGAAAGCCUGUAAUCAUUUUAAGGGUA [U3A G58A A96G U120C], for which the self-cleavage amounted to 0.44. Then GUAAACGGUCAUAGGCCAUGGAAACUAGGAGCACCAUUUCGCUGCCAGUGAAGAAAUGAACAAAGAAAAUCUGGGCCAGGCAGGCAUCAAUAGAAAUAGUCUUGCGCUCAACCAGAAAGUCCGUAAUCAUUUUAAGGGUA [U3A A91U U122C], with 1.13; and GGUAACGGUCAUAGGCCAUGAAGACUAGGAGCACCAUUUCGCUGCCAGCGAAGAAAUGAACAAAGAAAAUCUGGGCCAGGCAGGCAUCAAAAGAAAUAGUCUUGCGCUCAACCAGGAAGUCCGUAAUCAUUUUAAGGGUA [U2G G21A A23G U49C A116G U122C], with 0.55. With GGUAACGGUCAUAGGCCACGAAAACUAGGAGCGCCAUUUCGCUGCCAGUGAAGAAAUGAACAAAGAAAAUCUGGGCCAGGCAGGCAUCAAAAGAAAUAGUCUUGCGCUCAACCAGAAAGUCUGUAAUCAUUUUAAGGGUG [U2G U19C G21A A33G A140G], the self-cleavage is 0.74. The same measure for GGUAACGGUCAUAGGCCAUGGAAACUAGGAGCACCAUUCCGCUGCCAGUGAAGUAAUGAACAAAGAAAAUCUGGGCCAGGCAGGCAUCAAAAGAAAUAGUCUUGCGCUCAACCAGAAAGUCUGUAACCAUUUUAAGGGUA [U2G U39C A54U U127C]: 1.05.
